The campaign covered roughly 360,000 compounds. About 660 (0.18%) were called active. The inconclusive results got no clear call from the source; some entries with a clear call stand among them for comparison. The call rests on the fitted dose curve; in most records, active means well fitted inhibition curve with a large enough effect; inconclusive means small, poorly fitted or top-dose-only effect; inactive means no such curve, though single readings can be large or run the other way. No potency is given beside an inconclusive call; the fits are too rough.
Biological target: Rap guanine nucleotide exchange factor 4 (Homo sapiens) (UniProt Q8WZA2)
UniProt Q8WZA2, sequence (Q8WZA2 whole entry, looked up): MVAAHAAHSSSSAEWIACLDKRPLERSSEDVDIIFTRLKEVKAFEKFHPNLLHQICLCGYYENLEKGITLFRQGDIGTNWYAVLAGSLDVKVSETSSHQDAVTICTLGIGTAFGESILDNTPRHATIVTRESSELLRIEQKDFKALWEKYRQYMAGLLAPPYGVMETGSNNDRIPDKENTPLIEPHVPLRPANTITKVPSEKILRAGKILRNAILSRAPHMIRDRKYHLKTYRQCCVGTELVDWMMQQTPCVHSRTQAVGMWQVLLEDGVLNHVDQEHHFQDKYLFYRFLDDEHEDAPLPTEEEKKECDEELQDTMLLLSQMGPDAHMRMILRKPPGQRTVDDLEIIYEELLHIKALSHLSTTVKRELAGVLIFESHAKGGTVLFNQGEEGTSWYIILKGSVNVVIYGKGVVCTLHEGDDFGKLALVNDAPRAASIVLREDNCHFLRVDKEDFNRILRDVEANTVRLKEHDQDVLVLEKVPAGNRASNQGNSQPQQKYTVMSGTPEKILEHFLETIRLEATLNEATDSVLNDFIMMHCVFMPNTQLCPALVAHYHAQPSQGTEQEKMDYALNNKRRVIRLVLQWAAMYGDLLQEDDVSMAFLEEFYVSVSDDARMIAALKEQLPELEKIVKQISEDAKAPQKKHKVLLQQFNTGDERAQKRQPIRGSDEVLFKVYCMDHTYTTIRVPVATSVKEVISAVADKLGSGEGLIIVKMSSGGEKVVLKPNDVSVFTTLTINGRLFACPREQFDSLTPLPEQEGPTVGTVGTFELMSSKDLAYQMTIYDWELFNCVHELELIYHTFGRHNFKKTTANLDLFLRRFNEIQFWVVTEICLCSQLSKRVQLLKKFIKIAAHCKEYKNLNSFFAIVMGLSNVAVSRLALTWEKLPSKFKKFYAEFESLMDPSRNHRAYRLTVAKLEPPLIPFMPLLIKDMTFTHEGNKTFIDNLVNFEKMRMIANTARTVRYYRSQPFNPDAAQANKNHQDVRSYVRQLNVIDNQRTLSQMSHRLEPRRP
Experiment: qHTS for Antagonist of cAMP-regulated guanine nucleotide exchange factor 2 (EPAC2): primary screen; further: nearly all actives have a fitted effect of over 45% in size
Settings: EPAC2 GEF exchange of Rap1B-BODIPY-GDP, fluorescence; activity, negative = inhibition: at 114 µM (top of the series) unless noted
On the % scale 0 is the no-effect control and ±100 the full control effect; potency means the concentration at half of the fitted maximal effect; tags describe the fitted curve by direction and shape.

Row | Compound | Potency | activity, negative = inhibition
1 | CC1CCN(CC(=O)Nc2ccccc2Sc2ccccc2)CC1 | inconclusive [inhibitor, partial curve] | 
2 | O=C(CCS(=O)(=O)c1ccccc1)Nc1ccc2c(c1)OCO2 | inactive | 
3 | COc1ccc2c(C)cc(SC3CCOC3=O)nc2c1 (stereo not drawn) | inconclusive [inhibitor, partial curve, poor fit] | 
4 | CC(=O)Nc1ccc(NC2=CC(=O)c3ccccc3C2=O)cc1 | inactive | 
5 | COc1ccc(OC)c2nc3c(C(=O)NCCN(C)C)cccc3nc12 | inactive | 
6 | CCc1nc2ccc(C(=O)N(C)Cc3ccco3)cn2c1N(CC)Cc1cccc(Br)c1 | inconclusive [inhibitor, full curve] | 
7 | CCc1ccc(OCC(=O)NC2CCCCC2)c(Br)c1 | inconclusive [inhibitor, partial curve] | 
8 | O=C1COc2ccccc2N1Cc1c(F)cccc1Cl | inconclusive [inhibitor, partial curve] | 
9 | Cc1cc(C(F)(F)F)c2c(N)c(C(=O)NCc3ccc(Cl)cc3)sc2n1 | inconclusive [inhibitor, single point] | 
10 | Cc1ccc(Cc2c(-c3cccc(Cl)c3)nc3ccc(Br)cn23)cc1 | inconclusive [inhibitor, partial curve] | 
11 | CC(=O)c1cccc(NC(=S)N2CCc3ccccc32)c1 |  | inconclusive: -14.4% [inhibitor]
12 | O=C(O)c1cc(N2N=C(C(F)(F)F)/C(=C/C=C/c3ccco3)C2=O)ccc1Cl | inconclusive [inhibitor, single point] | 
13 | Cc1ccc(CNC(=O)COC(=O)c2cccnc2Cl)cc1 | inconclusive [inhibitor, single point] | 
14 | Cc1ccc(C)c(S(=O)(=O)C(C#N)c2nc3ccccc3nc2N2CCOCC2)c1 (stereo not drawn) | inactive | 
15 | COc1ccc(C(=O)c2ccc(N(C)C)cc2)c(OC)c1 | inconclusive [inhibitor, single point] | 
16 | CN(C(=O)COC(=O)COc1ccccc1Cc1ccccc1)c1ccccc1 | inconclusive [inhibitor, full curve] | 
17 | Cc1cc(OCc2ccc(C(=O)Nc3ccc(C(=O)O)cc3)o2)ccc1Cl | inconclusive [inhibitor, single point] | 
18 | CN(C)CCN(C(=O)c1ccccc1Cl)c1nc2c(Cl)cccc2s1 | inconclusive [inhibitor, single point] | 
19 | COc1cccc(NC(=O)C2(C)CCN2Cc2ccccc2OC(F)F)c1 (stereo not drawn) | inconclusive [inhibitor, single point] | 
20 | CCOc1ccc2nc(NC(=O)COc3ccc(N(C)S(=O)(=O)c4ccc(C)cc4)cc3)sc2c1 | inconclusive [inhibitor, single point] | 
21 | O=C(COC(=O)c1ccc(Br)o1)Nc1ccc(F)cc1[N+](=O)[O-] | inactive | 
22 | Cc1ccc(C(=O)N(CC(C)C)c2nc3ccccc3s2)o1 | inconclusive [inhibitor, single point] | 
23 | Cc1cc(C)nc(SCC(=O)Nc2ncc(Cc3ccc(Cl)c(Cl)c3)s2)n1 |  | inconclusive: -4.76% [inhibitor]

Row | Compound | Potency | activity, negative = inhibition
24 | COc1ccc2nc(-c3ccccc3)nc(SC)c2c1 | inconclusive [inhibitor, single point] | 
25 | COC(=O)CN1C(=O)Nc2ccc(C)cc2C1c1ccccc1 (stereo not drawn) | inconclusive [inhibitor, partial curve] | 
26 | Cc1ccc(C(=O)N/N=C\C=C\c2ccccc2[N+](=O)[O-])cn1 | inactive | 
27 | COCCCNC(=S)NNC(=O)c1ccccn1 | inconclusive [inhibitor, single point] | 
28 | CCN(CC)CCNC(=O)c1ccc(N2CCCCC2)c(NS(=O)(=O)c2ccc(C)cc2)c1 | inactive | 
29 | CCN(CC)S(=O)(=O)c1ccc(C(=O)Nc2cc(C)cc(C)c2)cc1 | inconclusive [inhibitor, partial curve] | 
30 | COc1ccc(-c2oc3cc(OC(C)=O)cc(OC(C)=O)c3c(=O)c2OC)cc1 | inconclusive [inhibitor, partial curve] | 
31 | Cc1ccc(S(=O)(=O)Nc2cccc3c2CCCC3)cc1 | inconclusive [inhibitor, single point] | 
32 | COc1ccc2nc3c(c(-c4ccccc4)c2c1)CCC3 | inconclusive [inhibitor, partial curve] | 
33 | Cc1cccc(N2CCN(C(=O)c3ccc4nccnc4c3)CC2C)c1 (stereo not drawn) | inactive | 
34 | C=CCn1c2ccccc2c(=O)c2cc(C#Cc3ccccn3)ccc21 | inactive | 
35 | Cc1ccc(S(=O)(=O)N2[C@@H](c3ccc(C(C)C)cc3)C(C(=O)O)=C[C@H]2C(C)(C)C)cc1 | inconclusive [inhibitor, partial curve] | 
36 | Cc1ccc(S(=O)(=O)Nc2ccccc2C(=O)Nc2nc(-c3ccc(F)cc3)cs2)cc1 | inactive | 
37 | COc1ccc(C(C#N)N2CCC(c3ccccc3)=N2)cc1 (stereo not drawn) | inconclusive [inhibitor, partial curve] | 
38 | CCCCN1C(=O)C(CC(=O)NC2CCCCC2)CC(C(=O)N2CCCCCC2)=C1C (stereo not drawn) | inconclusive [inhibitor, full curve, poor fit] | 
39 | CCOC(=O)/C(C#N)=C/c1c(N2CCCCCC2)nc2ccccn2c1=O | inconclusive [inhibitor, full curve] | 
40 | COc1ccc(Cn2c(O)c(C=Nc3ccc(OC)cc3)c3ccccc3c2=O)cc1 | inactive | 
41 | COc1cc(/C=N/NC(=O)C2(O)c3ccccc3-c3ccccc32)ccc1O | inconclusive [inhibitor, single point] | 
42 | O=C(c1ccccn1)N(Cc1ccco1)C1(C(=O)Nc2ccc(Br)cc2)CCCCC1 | inconclusive [inhibitor, single point] | 
43 | O=C(NCc1ccccc1)C(=O)Nc1nccs1 | inactive | 
44 | Cc1ccnc(NCc2cccc3ccccc23)c1 | inconclusive [inhibitor, partial curve] | 
45 | O=S(=O)(c1ccc(N2CCN(S(=O)(=O)c3ccccc3)CC2)nc1)N1CCCC1 | inconclusive [inhibitor, full curve] | 
46 | CC1CCCC(C)N1C(=O)c1ccccc1Nc1ccc(SC(F)F)cc1 (stereo not drawn) | inconclusive [inhibitor, full curve] | 

Row | Compound | Potency | activity, negative = inhibition
47 | CCc1c(C2(O)CCCCC2)[nH]c2ccc(C(F)(F)F)cc12 | inconclusive [inhibitor, partial curve] | 
48 | CC1=NN(c2ccccc2)C(=O)/C1=C\C=C1/N(C)c2ccccc2C1(C)C |  | inconclusive: -32.9% [inhibitor]
49 | Cc1ncc(CO)c2c1Oc1nc(-c3ccccc3F)nc(SCC(=O)N(C)c3ccccc3)c1C2 | inconclusive [inhibitor, partial curve] | 
50 | F[B-](F)(F)c1cc2cc(Br)ccc2s1 | inconclusive [inhibitor, partial curve] | 
51 | COc1cc2c(cc1OC)C(COc1ccc(F)cc1)N(C(C)=O)CC2 (stereo not drawn) | inconclusive [inhibitor, partial curve] | 
52 | COC(=O)CC1(C(=O)OC)Oc2ccc(Br)cc2C(=O)N1c1cccc(Cl)c1Cl (stereo not drawn) | inconclusive [inhibitor, full curve, poor fit] | 
53 | Cc1nc([N+](=O)[O-])cn1CCC#N | inactive | 
54 | CCCCCCCCCCOC(=O)Cn1c(COc2ccccc2)[n+](C)c2ccccc21 | inconclusive [inhibitor, partial curve] | 
55 | CCNc1c(NS(=O)(=O)c2ccc(C3CCCCC3)cc2)c(=O)oc2ccccc12 | inconclusive [inhibitor, partial curve] | 
56 | C[C@H]1CN([C@@H](C)CO)C(=O)c2cc(NS(=O)(=O)c3ccc(Cl)cc3)ccc2O[C@@H]1CN(C)CC1CCCCC1 | inactive | 
57 | Cc1cc(C(=O)Nc2ccc([N+](=O)[O-])cn2)cs1 | inactive | 
58 | CCC(C(=O)OCC(=O)Nc1cc(C)ccc1OC)c1ccccc1 (stereo not drawn) | inconclusive [inhibitor, single point] | 
59 | CCOC(=O)c1oc2ccccc2c1CN1CC(C)OC(C)C1 (stereo not drawn) | inconclusive [inhibitor, partial curve] | 
60 | COC(=O)CN1C(=O)Nc2ccc(Cl)cc2C1c1ccccc1 (stereo not drawn) | inconclusive [inhibitor, partial curve] | 
61 | CCCn1nc(C(=O)Nc2cc(OCC)c(N3CCOCC3)cc2OCC)c2ccccc2c1=O |  | inconclusive: -15% [inhibitor]
62 | CCCCNc1c(-c2ccc(OC)c(SC(C)CC)c2)nc2cnccn12 (stereo not drawn) | inconclusive [inhibitor, full curve] | 
63 | CCN(C(=O)Cn1ccc(C(F)(F)F)n1)c1c(N)n(Cc2ccccc2)c(=O)[nH]c1=O | inactive | 
64 | CCOC(=O)C1=C(C)N=c2s/c(=C/c3cccc([N+](=O)[O-])c3O)c(=O)n2C1c1ccccc1 (stereo not drawn) | inconclusive [inhibitor, partial curve] | 
65 | CC(C)(C)NC(=O)C1(C)CCC(=O)N1C1CC1 (stereo not drawn) | inactive | 
66 | Cc1nnc(N/N=C/c2cc([N+](=O)[O-])c(N3CCC(C)CC3)cc2N2CCC(C)CC2)n1N | inconclusive [inhibitor, partial curve] | 
67 | CCN(CC)S(=O)(=O)c1ccc(N2CCCCC2)c(NC(=O)/C(C#N)=C/c2ccc(OC)cc2)c1 | inactive | 
68 | CCOc1cc(/C=C(\C#N)C(=O)Nc2cccc(C(=O)O)c2)cc(Br)c1OC(=O)c1ccc(OC)cc1 | active: 50.1 µM | 

Source: PubChem BioAssay AID720708 (National Center for Advancing Translational Sciences (NCATS), 2013)
